# Some of the results follow. The full chains were built here from the parent and the listed change. Values near 0.05 are background.
# B1: TEV protease; numbered along this chain (parent)
# chain: MGESLFKGPRDYNPISSSICHLTNESDGHTTSLYGIGFGPFIITNKHLFRRNNGTLVVQSLHGVFKVKDTTTLQQHLVDGRDMIIIRMPKDFPPFPQKLKFREPQREERICLVTTNFQTKSMSSMVSDTSCTFPSGDGIFWKHWIQTKDGQCGSPLVSTRDGFIVGIHSASNFTNTNNYFTSVPKNFMELLTNQEAQQWVSGWRLNADSVLWGGHKVFMVKPEEPFQPVKEATQL
# Variants of: B1
# Experiment: raw area under fraction-flipped curve 0-4 h after induction (AUC4h, not background-subtracted), DNA-recorder readout of cleavage of the substrate (dimensionless); higher = more cleavage of the substrate by the protease variant
# Details: temperature: 34 °C; time window: 0-4 h after rhamnose induction
# Experimental: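 In vivo DNA recorder in E. coli TOP10(DE3) ΔrhaA at 34 °C. Each TEVp single-site mutant (parent TEVp 0) is paired with a single-site variant of the 7-mer TEVs (canonical ENLYFQ|S). The substrate sits between flexible linkers in a Bxb1-sfGFP-TEVs-SsrA fusion, so cleavage stabilises Bxb1 and speeds flipping of a recombination array, read by NGS. The value is the raw area under the fraction-flipped curve over 0-4 h after rhamnose induction (AUC4h), with ≥20 reads per time point. It is not background-subtracted; inactive controls average about 0.047.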
# 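Further: Bxb1 expression induced with 0.2% (w/v) L-rhamnose at OD600 near 0.5, cultures sampled hourly, flipped fraction per protease–substrate barcode pair counted by paired-end Illumina sequencing.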
Variant,area with substrate ENAYFQS,area with substrate ENCYFQS,area with substrate ENDYFQS,area with substrate ENEYFQS,area with substrate ENFYFQS,area with substrate ENGYFQS,area with substrate ENHYFQS,area with substrate ENQYFQS,area with substrate ENRYFQS,area with substrate ENSYFQS,area with substrate ENTYFQS,area with substrate ENVYFQS,area with substrate ENWYFQS,area with substrate ENYYFQS,area with substrate ENIYFQS,area with substrate ENMYFQS,area with substrate ENKYFQS,area with substrate ENNYFQS,area with substrate ENPYFQS
MGESLFKGPRDYNPISSSICHLTNESDGHTTSLYGIGFGPFIITNKHLFRRNNGTLVVQSLHGVFKVKDTTTLQQHLVDGRDMIIIRMPKDFPPFPQKLKFREPQREERICLVTTNFQTKSMSSMVSDTSCTFPSGDGIFWKHWIQTKDGQCGSPLVSTRDGFIVGIHSASNFTNTNNYFTSVPKNFMELLTNQEAQQWVSGWRLNADSVLWGGHKVFMVKPEEPFQPHKEATQL [V229H],0.0582,0.0779,0.0706,0.0641,0.0543,0.0474,0.0641,0.0622,0.0674,0.0587,0.064,0.0665,0.0481,0.0055,–,–,–,–,–
MGESLFKGPRDYNPISSSICHLTNESDGHTTSLYGIGFGPFIITNKHLFRRNNGTLVVQSLHGVFKVKDTTTLQQHLVDGRDMIIIRMPKDFPPFPQKLKFREPQREERICLVTTNFQTKSMSSMVSDTSCTFPSGDGIFWKHWIQTKDGQCGSPLVSTRDGFIVGIHSASNFTNTNNYFTSVPKNFMELLTNQEAQQWVSGWRLNADSVLWGGHKVFMVKPEEPFQPYKEATQL [V229Y],0.0638,0.0611,0.0594,0.0683,0.0733,0.0545,–,0.0646,0.0606,0.0621,0.0368,0.0644,0.0786,0.0634,0.115,0.0882,–,–,–
MGESLFKGPRDYNPISSSICHLTNESDGHTTSLYGIGFGPFIITNKHLFRRNNGTLVVQSLHGVFKVKDTTTLQQHLVDGRDMIIIRMPKDFPPFPQKLKFREPQREERICLVTTNFQTKSMSSMVSDTSCTFPSGDGIFWKHWIQTKDGQCGSPLVSTRDGFIVGIHSASNFTNTNNYFTSVPKNFMELLTNQEAQQWVSGWRLNADSVLWGGHKVFMVKPEEPFQPLKEATQL [V229L],0.0542,0.0694,0.0524,0.0652,0.0601,0.0523,0.0571,0.0558,0.0598,0.0631,0.0653,–,0.0478,–,0.14,–,0.0681,0.0614,–
MGESLFKGPRDYNPISSSICHLTNESDGHTTSLYGIGFGPFIITNKHLFRRNNGTLVVQSLHGVFKVKDTTTLQQHLVDGRDMIIIRMPKDFPPFPQKLKFREPQREERICLVTTNFQTKSMSSMVSDTSCTFPSGDGIFWKHWIQTKDGQCGSPLVSTRDGFIVGIHSASNFTNTNNYFTSVPKNFMELLTNQEAQQWVSGWRLNADSVLWGGHKVFMVKPEEPFQPVKEPTQL [A232P],0.0592,0.062,0.0552,–,–,0.0546,–,0.062,–,0.0634,–,–,0.0512,–,–,0.0727,0.0481,–,–
MGESLFKGPRDYNPISSSICHLTNESDGHTTSLYGIGFGPFIITNKHLFRRNNGTLVVQSLHGVFKVKDTTTLQQHLVDGRDMIIIRMPKDFPPFPQKLKFREPQREERICLVTTNFQTKSMSSMVSDTSCTFPSGDGIFWKHWIQTKDGQCGSPLVSTRDGFIVGIHSASNFTNTNNYFTSVPKNFMELLTNQEAQQWVSGWRLNADSVLWGGHKVFMVKPEEPFQPVGEATQL [K230G],0.0879,0.0955,0.0753,0.0608,0.0532,0.0483,0.0473,0.0583,0.0485,–,–,0.0911,0.0041,0.0558,0.131,0.0867,–,–,0.0549
MGESLFKGPRDYNPISSSICHLTNESDGHTTSLYGIGFGPFIITNKHLFRRNNGTLVVQSLHGVFKVKDTTTLQQHLVDGRDMIIIRMPKDFPPFPQKLKFREPQREERICLVTTNFQTKSMSSMVSDTSCTFPSGDGIFWKHWIQTKDGQCGSPLVSTRDGFIVGIHSASNFTNTNNYFTSVPKNFMELLTNQEAQQWVSGWRLNADSVLWGGHKVFMVKPEEWFQPVKEATQL [P225W],0.057,–,0.0593,–,0.0446,–,–,–,–,0.0608,0.0763,0.074,–,0.0837,0.116,0.0677,0.0765,–,–
MGESLFKGPRDYNPISSSICHLTNESDGHTTSLYGIGFGPFIITNKHLFRRNNGTLVVQSLHGVFKVKDTTTLQQHLVDGRDMIIIRMPKDFPPFPQKLKFREPQREERICLVTTNFQTKSMSSMVSDTSCTFPSGDGIFWKHWIQTKDGQCGSPLVSTRDGFIVGIHSASNFTNTNNYFTSVPKNFMELLTNQEAQQWVSGWRLNADSVLWGGHKVFMVKPEERFQPVKEATQL [P225R],0.0581,0.0706,0.0663,0.0675,–,0.0581,0.0645,0.0544,0.0604,0.063,0.0658,0.068,0.0526,0.0652,0.092,0.0741,0.0537,–,0.0289
MGESLFKGPRDYNPISSSICHLTNESDGHTTSLYGIGFGPFIITNKHLFRRNNGTLVVQSLHGVFKVKDTTTLQQHLVDGRDMIIIRMPKDFPPFPQKLKFREPQREERICLVTTNFQTKSMSSMVSDTSCTFPSGDGIFWKHWIQTKDGQCGSPLVSTRDGFIVGIHSASNFTNTNNYFTSVPKNFMELLTNQEAQQWVSGWRLNADSVLWGGHKVFMVKPEEPYQPVKEATQL [F226Y],0.0664,0.052,0.0445,0.0655,0.0337,0.0606,0.0595,0.0746,0.0548,0.0591,0.064,0.0808,–,0.0771,0.114,0.0932,0.0647,0.0838,0.0637
MGESLFKGPRDYNPISSSICHLTNESDGHTTSLYGIGFGPFIITNKHLFRRNNGTLVVQSLHGVFKVKDTTTLQQHLVDGRDMIIIRMPKDFPPFPQKLKFREPQREERICLVTTNFQTKSMSSMVSDTSCTFPSGDGIFWKHWIQTKDGQCGSPLVSTRDGFIVGIHSASNFTNTNNYFTSVPKNFMELLTNQEAQQWVSGWRLNADSVLWGGHKVFMVKPEEPFQPVKEATQM [L235M],0.0634,0.0706,0.0577,0.0699,0.0461,–,0.0671,0.0397,0.0537,0.0432,0.0571,0.0894,–,0.0596,–,–,0.092,0.0678,0.065
